This note sets out measurements from patent publication US9763925B2, “Antibacterial compounds” (SUMMIT THERAPEUTICS PLC, priority 2008, dated 2017).

≈ marks a conversion by molar mass, not a printed value.

The first experiment relates to vancomycin-resistant strain of Enterococcus faecalis ATCC51299 (VR). Nature of the experiment: MIC by broth microdilution against vancomycin-resistant Enterococcus faecalis ATCC51299.
Conditions: not given
For orientation: Dilution methods test growth across graded concentrations, often in twofold steps.
In turn, `Nc1ccc(-c2nc3cc(-c4ccc5nc(-c6ccc(N)cc6)[nH]c5c4)ccc3[nH]2)cc1` [Compound 1, 4,4′-(1H,3′H-5,5′-bibenzo[d]imidazole-2,2′-diyl)dianiline] gave an MIC of under 1 µg/mL.

Molecule `Nc1cccc(-c2nc3cc(-c4ccc5[nH]c(-c6cccc(N)c6)nc5c4)ccc3[nH]2)c1` [Compound 2, 3,3′-(1H,1′H-5,5′-bibenzo[d]imidazole-2,2′-diyl)dianiline] had an MIC of 1 to 16 µg/mL (≈ 2.4 to 38.4 µM).

For the molecule `Oc1ccc(-c2nc3cc(-c4ccc5[nH]c(-c6ccc(O)cc6)nc5c4)ccc3[nH]2)cc1` [Compound 3, 4,4′-(1H,1′H-5,5′-bibenzo[d]imidazole-2,2′-diyl)diphenol], the MIC is under 1 µg/mL.

Regarding `Cn1c(-c2ccc(N)cc2)nc2ccc(-c3ccc4[nH]c(-c5ccc(N)cc5)nc4c3)cc21` [Compound 4, 4,4′-(3′-methyl-1H,3′H-5,5′-bibenzo[d]imidazole-2,2′-diyl)dianiline], the MIC is under 1 µg/mL.

On to `Cn1c(-c2ccc(N)cc2)nc2cc(-c3ccc4[nH]c(-c5ccc(N)cc5)nc4c3)ccc21` [Compound 5, 4,4′-(1-methyl-1H,1′H-5,5′-bibenzo[d]imidazole-2,2′-diyl)dianiline], for which the MIC was under 1 µg/mL.

As to `CNc1ccc(-c2nc3cc(-c4ccc5[nH]c(-c6ccc(NC)cc6)nc5c4)ccc3[nH]2)cc1` [Compound 6, 4,4′-(1H,1′H-5,5′-bibenzo[d]imidazole-2,2′-diyl)bis(N-methylaniline)], the MIC is under 1 µg/mL.

With `COc1ccc(-c2nc3cc(-c4ccc5[nH]c(-c6ccc(OC)cc6)nc5c4)ccc3[nH]2)cc1` [Compound 7, 2,2′-bis(4-methoxyphenyl)-1H,1′H-5,5′-bibenzo[d]imidazole], the MIC is under 1 µg/mL.

For the molecule `Nc1ccc(-c2nc3cc(-c4ccc5[nH]cnc5c4)ccc3[nH]2)cc1` [Compound 8, 4-(1H,1′H-5,5′-bibenzo[d]imidazol-2-yl)aniline], the MIC is 1 to 16 µg/mL (≈ 3.07 to 49.2 µM).

`Nc1ccc(-c2nc3cc(-c4ccc5[nH]c(-c6ccccc6)nc5c4)ccc3[nH]2)cc1` [Compound 9, 4-(2′-phenyl-1H,1′H-5,5′-bibenzo[d]imidazol-2-yl)aniline] displayed an MIC of under 1 µg/mL.

In turn, `COc1ccc(-c2nc3ccc(-c4ccc5[nH]c(-c6ccccc6)nc5c4)cc3[nH]2)cc1` [Compound 10, 2′-(4-methoxyphenyl)-2-phenyl-1H,3′H-5,5′-bibenzo[d]imidazole] had an MIC of under 1 µg/mL.

In turn, `Nc1ccc(-c2nc3cc(-c4ccc5[nH]c(-c6ccc(N)nc6)nc5c4)ccc3[nH]2)cn1` [Compound 11, 5,5′-(1H,1′H-5,5′-bibenzo[d]imidazole-2,2′-diyl)dipyridin-2-amine] had an MIC of 17 to 64 µg/mL (≈ 40.6 to 153 µM).

`c1cc(-c2nc3cc(-c4ccc5[nH]c(-c6ccncc6)nc5c4)ccc3[nH]2)ccn1` [Compound 12, 2,2′-di(pyridin-4-yl)-1H,1′H-5,5′-bibenzo[d]imidazole] showed an MIC of over 64 µg/mL.

A further experiment has as its system Clostridium difficile clinical isolate (CI). Nature of the experiment: microbe, parasite or virus in culture. The format is cell-based. The conditions noted are these: Clostridioides difficile, read-out: MIC (CI).
With `Nc1ccc(-c2nc3cc(-c4ccc5nc(-c6ccc(N)cc6)[nH]c5c4)ccc3[nH]2)cc1` [Compound 1, 4,4′-(1H,3′H-5,5′-bibenzo[d]imidazole-2,2′-diyl)dianiline], the MIC was under 1 µg/mL.

`Nc1cccc(-c2nc3cc(-c4ccc5[nH]c(-c6cccc(N)c6)nc5c4)ccc3[nH]2)c1` [Compound 2, 3,3′-(1H,1′H-5,5′-bibenzo[d]imidazole-2,2′-diyl)dianiline]: the MIC is under 1 µg/mL.

On to `Oc1ccc(-c2nc3cc(-c4ccc5[nH]c(-c6ccc(O)cc6)nc5c4)ccc3[nH]2)cc1` [Compound 3, 4,4′-(1H,1′H-5,5′-bibenzo[d]imidazole-2,2′-diyl)diphenol], for which the MIC was under 1 µg/mL.

Take `Cn1c(-c2ccc(N)cc2)nc2ccc(-c3ccc4[nH]c(-c5ccc(N)cc5)nc4c3)cc21` [Compound 4, 4,4′-(3′-methyl-1H,3′H-5,5′-bibenzo[d]imidazole-2,2′-diyl)dianiline]: the MIC fell in the range of 17 to 64 µg/mL (≈ 39.5 to 149 µM).

Regarding `Cn1c(-c2ccc(N)cc2)nc2cc(-c3ccc4[nH]c(-c5ccc(N)cc5)nc4c3)ccc21` [Compound 5, 4,4′-(1-methyl-1H,1′H-5,5′-bibenzo[d]imidazole-2,2′-diyl)dianiline], the MIC was under 1 µg/mL.

On to `CNc1ccc(-c2nc3cc(-c4ccc5[nH]c(-c6ccc(NC)cc6)nc5c4)ccc3[nH]2)cc1` [Compound 6, 4,4′-(1H,1′H-5,5′-bibenzo[d]imidazole-2,2′-diyl)bis(N-methylaniline)], for which the MIC was under 1 µg/mL.

Turning to `COc1ccc(-c2nc3cc(-c4ccc5[nH]c(-c6ccc(OC)cc6)nc5c4)ccc3[nH]2)cc1` [Compound 7, 2,2′-bis(4-methoxyphenyl)-1H,1′H-5,5′-bibenzo[d]imidazole], the MIC was under 1 µg/mL.

As for `Nc1ccc(-c2nc3cc(-c4ccc5[nH]cnc5c4)ccc3[nH]2)cc1` [Compound 8, 4-(1H,1′H-5,5′-bibenzo[d]imidazol-2-yl)aniline], the MIC was 1 to 16 µg/mL (≈ 3.07 to 49.2 µM).

`Nc1ccc(-c2nc3cc(-c4ccc5[nH]c(-c6ccccc6)nc5c4)ccc3[nH]2)cc1` [Compound 9, 4-(2′-phenyl-1H,1′H-5,5′-bibenzo[d]imidazol-2-yl)aniline]: the MIC is under 1 µg/mL.

Regarding `COc1ccc(-c2nc3ccc(-c4ccc5[nH]c(-c6ccccc6)nc5c4)cc3[nH]2)cc1` [Compound 10, 2′-(4-methoxyphenyl)-2-phenyl-1H,3′H-5,5′-bibenzo[d]imidazole], the MIC was under 1 µg/mL.

On to `Nc1ccc(-c2nc3cc(-c4ccc5[nH]c(-c6ccc(N)nc6)nc5c4)ccc3[nH]2)cn1` [Compound 11, 5,5′-(1H,1′H-5,5′-bibenzo[d]imidazole-2,2′-diyl)dipyridin-2-amine], for which the MIC is under 1 µg/mL.

With `c1cc(-c2nc3cc(-c4ccc5[nH]c(-c6ccncc6)nc5c4)ccc3[nH]2)ccn1` [Compound 12, 2,2′-di(pyridin-4-yl)-1H,1′H-5,5′-bibenzo[d]imidazole], the MIC is under 1 µg/mL.

A further experiment relates to Bacteroides fragilis (both ATCC25285 and a clinical isolate). As to the kind of experiment: Activity against Bacteroides fragilis (specificity). The conditions noted are these: both ATCC25285 and a clinical isolate were tested.
With `c1cc(-c2nc3cc(-c4ccc5[nH]c(-c6ccncc6)nc5c4)ccc3[nH]2)ccn1` [Compound 12, 2,2′-di(pyridin-4-yl)-1H,1′H-5,5′-bibenzo[d]imidazole], the “activity against Bacteroides fragilis” value was “no significant antibacterial activity”.
